Measurements as given in patent US20260232828A1, “LIGAND-CYTOTOXICITY DRUG CONJUGATES AND PHARMACEUTICAL USES THEREOF” (HANSOH BIO LLC, priority 2023, published 2026).

B1: 4F9: anti-CDH17 antibody; SEQ ID NO 81 (heavy chain) and 82 (light chain) (antibody, listed as Homo sapiens)
heavy: QVQLQESGPGLVKPSGTLSLTCAVSGGSISSSNWWSWVRQPPGKGLEWIGEIYHSGSTSYNPSLKSRVTISVDKSKNQFSLKLSSVTAADTAVYYCARNDWGFPLDCWGQGTLVTVSS[letters of human IgG1 constant region omitted]
light: DIQMTQSPSSLSASVGDRVTITCRASQSISSYLNWYQQKPGKAPKLLIYAASSLQSGVPSRFSGSGSGTHFTLTISSLQPEDFATYYCQQSHNIPITFGQGTRLEIKRTVAAPSVFIFPPSDEQLKSGTASVVCLLNNFYPREAKVQWKVDNALQSGNSQESVTEQDSKDSTYSLSSTLTLSKADYEKHKVYACEVTHQGLSSPVTKSFNRGEC
B2: 9E2: anti-CDH17 antibody; SEQ ID NO 83 (heavy chain) and 84 (light chain) (antibody, listed as Homo sapiens)
heavy: EVQLVESGGGVVRPGGSLRLSCAASGFTFDNYGMSWVRQAPGKGLEWVSGINWNGGSTYYADSVRGRFTISRDNAKNSLYLQMNSLRAEDTALYYCARGSRYNWSYDAFDIWGQGTLVTVSS[letters of human IgG1 constant region omitted]
light: DIQMTQSPSSLSASVGDRVTITCRASQGVRNALGWYQQKPGKAPKRLIYAASSLQSGVPSRFSGSGSGTEFTLTISSLQPEDFATYYCLQHNSYPFTFGPGTKVEIKRTVAAPSVFIFPPSDEQLKSGTASVVCLLNNFYPREAKVQWKVDNALQSGNSQESVTEQDSKDSTYSLSSTLTLSKADYEKHKVYACEVTHQGLSSPVTKSFNRGEC
B3: 13C7: anti-CDH17 antibody; SEQ ID NO 87 (heavy chain) and 88 (light chain) (antibody, listed as Homo sapiens)
heavy: QITLKESGPTLVKPTQTLTLTCTFSGFSLSTSGVGVGWIRQPPGKALEWLALIYWNDDKRYRPSLKNRLTITKDTSKNQVVLTMTNMDPVDTATYYCTHYGVTAPFYNWFDPWGQGTLVTVSS[letters of human IgG1 constant region omitted]
light: DIQMTQSPSSLSASVGDRVTITCRASQSITSYLNWYQQKPGKAPKLLIYAASSLQSGVPSRFSGSGSGTDFTLTISSLQPEDFATYYCQRSYSTLTFGGGTKVEIKRTVAAPSVFIFPPSDEQLKSGTASVVCLLNNFYPREAKVQWKVDNALQSGNSQESVTEQDSKDSTYSLSSTLTLSKADYEKHKVYACEVTHQGLSSPVTKSFNRGEC

System: AsPC1 cells
Assay: Indirect killing assay (cell internalization) of hybridoma supernatants
Type: cell-based, human
Settings: hybridoma supernatant with Fab anti-mouse IgG Fc-MMAF 20 nM, in words
Description: Cell internalization activities of hybridoma supernatants were measured using an indirect killing assay in AsPC1 cells. The AsPC1 cells were seeded in 96 well plate at 8,000 cells/well with propidium iodide (abeam, Cat #ab14083) at 500 ng/mL and SPY650-DNA (Cytoskeleton, Inc., Cat #CYSC501) at 1:2000 dilution. Cells were incubated overnight at 37° C. in 5% CO2. The hybridoma supernatants from each hybridoma clone were diluted with hybridoma culture medium containing 500 ng/mL propidium iodide and 2000-fold diluted SPY650-DNA and mixed with Fab anti-mouse IgG Fc-MMAF conjugates with cleavable linker (Moradec, AM-202AF), then added to each well. The final concentrations of mouse IgG were roughly 10 nM, 3.33 nM, and 1.11 nM. The final concentration of the Fab anti-mouse IgG Fc-MMAF conjugates in each well was 20 nM. With the presence of secondary Fab-vc-MMAF, the internalized antibody/Fab-vc-MMAF conjugates complex will release the cytotoxic payload and kill the cells. Cytation5 (Agilent) was used to detect the viability of the cells in each well by imaging the plates every 8 h.
A purified anti-human CDH17 antibody was used as a positive control (Invitrogen, Cat #MA5-29135). A purified mouse IgG1 antibody was used as isotype control (Biolegend, Cat #400102).

Row | Molecule | cell internalization activity
1 | B1 | capable of internalizing into CDH17 positive cell line
2 | B2 | capable of internalizing into CDH17 positive cell line
3 | B3 | capable of internalizing into CDH17 positive cell line

Molecular target: BSA (Bos taurus, UniProt P02769)
Assay: ELISA binding of hybridoma clones to BSA (specificity control)
Settings: hybridoma supernatant; plate coated with BSA
Description: (§1) ELISA was performed using the DuoSet ELISA Ancillary Kit (R&D System, DY008). ELISA plates were coated with 1 μg/ml of human CDH17 His Tag (Sino biological, catalog number 11360-H08H), or BSA overnight. Excess unbound proteins were washed off by washing the plates three times with the wash buffer before blocking for 1 hour at room temperature. 100 μl CDH17 hybridoma supernatant was added in each well and incubated for 1 hour at room temperature. Excess unbound antibodies were washed off and 100 μl of 1:30000 diluted secondary antibody Goat anti-mouse IgG Fc-HRP (ab5870) was added to each well for another 1 hour. Plates were washed before the addition 50 μL of […] (color A and color B) according to manufacturer's protocol. The reactions were stopped using 25 μL of stop solution. Optical density at 450 nm of samples was measured by a microplate reader (PerkinElmer). All tested clones bound selectively to human CDH17 but not BSA.

BSA, sequence (P02769 25-607): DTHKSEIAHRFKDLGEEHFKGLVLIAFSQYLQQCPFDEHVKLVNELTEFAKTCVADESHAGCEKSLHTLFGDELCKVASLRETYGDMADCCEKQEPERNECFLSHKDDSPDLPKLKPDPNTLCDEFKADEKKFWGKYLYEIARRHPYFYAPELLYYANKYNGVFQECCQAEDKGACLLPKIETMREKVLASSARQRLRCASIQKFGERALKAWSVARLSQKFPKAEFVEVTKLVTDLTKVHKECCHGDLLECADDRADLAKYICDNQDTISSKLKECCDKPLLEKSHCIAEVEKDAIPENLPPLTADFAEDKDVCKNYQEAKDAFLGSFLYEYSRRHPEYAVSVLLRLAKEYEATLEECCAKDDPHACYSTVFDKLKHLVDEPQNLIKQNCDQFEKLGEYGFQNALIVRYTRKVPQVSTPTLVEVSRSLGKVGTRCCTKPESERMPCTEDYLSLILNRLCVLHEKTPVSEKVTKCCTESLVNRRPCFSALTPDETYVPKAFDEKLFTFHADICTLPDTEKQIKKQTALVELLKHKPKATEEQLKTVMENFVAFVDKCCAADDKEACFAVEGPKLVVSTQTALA

Row | Molecule | Protein binding (BSA) [OD450]
4 | B1 | 0.051
5 | B2 | 0.0429
6 | B3 | 0.0432

Molecular target: T1, human CDH17 His Tag (Homo sapiens, UniProt Q12864)
T1 construct: His tag; purchased Sino biological 11360-H08H
Assay: ELISA binding of hybridoma clones to human CDH17 protein
Settings: hybridoma supernatant; plate coated with 1 μg/ml antigen
Description: as §1

Row | Molecule | Protein binding (human CDH17) [OD450]
7 | B1 | 1.5202
8 | B2 | 1.4804
9 | B3 | 1.6185

System: CDH17 positive cell line AsPC1, GP2d and CDH17 negative cell line SW480
Assay: Flow cytometry binding of hybridoma supernatants to CDH17 expressing cancer cells
Set-up: species or system human
Settings: undiluted hybridoma supernatant, in words
Description: Hybridoma supernatants were subjected to binding tests on CDH17 positive cell line AsPC1 (ATCC, CRL-1682), GP2d (Creative bioarray, CSC-J9456), and CDH17 negative cell line SW480 (ATCC, CCL-228) using flow cytometry analysis. Briefly, 50 μL of cells in cell staining buffer (2×10^6 cells/mL) was mixed with 50 μL undiluted supernatants. The mixture was incubated on ice for 1 hour and then washed with ice-cold staining buffer twice. The cells were subsequently stained with 50 μL of PE labeled secondary antibody (1:250 dilution, Biolegend, Cat #405307) for 20 min. After washing by staining buffer and fixing by 4% PFA, cells were analyzed by flow cytometry.
A purified anti-human CDH17 antibody was used as a positive control (Sino Biological, Cat #11360-MM02). A purified mouse IgG1 antibody was used as isotype control (Biolegend, Cat #400102).

Row | Molecule | binding profile to CDH17 positive versus negative cells
10 | B1 | enhanced binding profile to AsPC1 cells and GP2d cells compared to SW480 cells
11 | B2 | enhanced binding profile to AsPC1 cells and GP2d cells compared to SW480 cells
12 | B3 | enhanced binding profile to AsPC1 cells and GP2d cells compared to SW480 cells
